About 800 (1.6%) of roughly 50,000 compounds showed an effect of 50% or more. The list shows a part of the results.
target: Bcl-2-like protein 10 (Homo sapiens) (UniProt Q9HD36); assay: TR3 peptide-Bcl-B binding displacers, biochemical primary FP assay, phenotype converters (AID 1240); details: GST-Bcl-B / FITC-TR3 peptide fluorescence polarization; stronger effect = higher value; compound at 3.75 mg/L;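 further: 0% = Bcl-B with tracer peptide and DMSO and 100% = tracer peptide lacking Bcl-B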
Chain of UniProt Q9HD36 (Q9HD36 whole entry, looked up): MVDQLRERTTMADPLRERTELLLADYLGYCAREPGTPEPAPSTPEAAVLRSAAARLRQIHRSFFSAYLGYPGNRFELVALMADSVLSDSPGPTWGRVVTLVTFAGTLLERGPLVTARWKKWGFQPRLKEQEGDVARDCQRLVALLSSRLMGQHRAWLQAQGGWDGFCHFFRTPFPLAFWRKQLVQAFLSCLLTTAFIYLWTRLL

SMILES | displacement [%]
CCOCCOC(=O)c1ccc(NC(=O)COc2cc(C)cc(C)c2)cc1 | 19.7
CCOc1ccc(-c2csc(/C(C#N)=C/c3ccc(Cl)cc3)n2)cc1 | 12.8
CC1=C(C(=O)Nc2ccccc2C)C(c2ccccc2Br)NC(=S)N1 (stereo unspecified) | 10.8
CCC(=O)Nc1nc(C)c(-c2csc(Nc3cccc(C(=O)O)c3)n2)s1 | 34.5
CCOc1ccccc1N1CCN(C(=O)c2cccc([N+](=O)[O-])c2)CC1 | -6.4
CC(C)COc1ccc(C(=O)Nc2ccc(Cc3ccncc3)cc2)cc1 | -0.2
O=C(O)COc1ccc(N2C(=O)C3CC=CCC3C2=O)cc1 (stereo unspecified) | -15
c1ccc(-c2cnnc3c2[nH]c2ccccc23)cc1 | 13.6
CC(C)(C)c1ccc(CSc2nc3ccccc3c(=O)[nH]2)cc1 | -0.5
CCOc1ccc(C(NC(=O)c2ccccc2F)c2ccc(OC)c(OC)c2)cc1 (stereo unspecified) | -5.9
Cc1ccc(S(=O)(=O)c2nc(N)sc2Cl)cc1 | 15.4
COc1cccc(N2C(=O)NC(=O)/C(=C/C=C/c3ccco3)C2=O)c1 | -47.4
Cc1cc(C)c(NC(=O)c2cncc(Br)c2)c(C)c1 | 8.3
NC1=NC(=O)/C(=C/c2ccc(Br)cc2)S1 | 3.7
CCN(CC)S(=O)(=O)c1ccc(C)c(C(=O)O)c1 | 1.5
COc1cccc(OCCn2c(=O)c3cc4c(=O)n(CCOc5cccc(OC)c5)c(=O)c4cc3c2=O)c1 | 1.7
O=C1c2ccccc2C(=O)N1Oc1ccc(C(F)(F)F)cc1[N+](=O)[O-] | -1.7
O=C1c2ccccc2NC(c2ccccc2)N1O (stereo unspecified) | -0.6
CC1(C)C(=O)N(Cc2ccccc2)c2ccccc2N1C(=O)c1ccc([N+](=O)[O-])cc1 | -1.7

SMILES | displacement [%]
Cc1cccc(OCCN2CCCCC2)c1 | 6.7
Cc1cc(OCC(=O)Nc2cccc(F)c2)ccc1Cl | -5.3
CN(C)c1cc(Nc2ccccc2)c2c3c(onc13)-c1ccccc1C2=O | 0
Cc1cc(N2CCOCC2)c2c(N)c(Br)cc(C)c2n1 | 8.1
COc1ccc(/C=C(\C#N)c2nc3ccccc3[nH]2)cc1OC | 11
CC(C)=C1C(=O)NN(c2ccccc2)C1=O | 14.7
CCOC(=O)C1=C(c2ccccc2)NC(=S)NC1c1ccc(OC)cc1 (stereo unspecified) | 6.2
N#C/C(=C\c1ccc(-c2ccc3c(c2)COC3=O)o1)C(N)=O | -10.4
COc1cc(/C=C2/SC(=S)N(CC(=O)Nc3nc4ccccc4s3)C2=O)cc(OC)c1OC | 10.6
O=C(NCCCc1ccccc1)c1cccc(F)c1 | -1.9
CCCC(=O)N1c2c(C)cccc2C(Nc2ccccc2C)CC1C (stereo unspecified) | 0.5
Cc1cccc(C(=O)O)c1NC(=O)C(C)Oc1ccccc1 (stereo unspecified) | -7.7
CC(=O)c1cc(F)c(N2CCN(C(=O)c3cccs3)CC2)cc1C | 80
Cc1ccc(C)c(NC(=O)C2C3CC/C=C\CCC32)c1 (stereo unspecified) | -3.6
CCN(CC)S(=O)(=O)c1cccc(C(=O)Nc2ccc(C(C)=O)cc2)c1 | -9.7
COc1ccccc1CC(=O)N1CCN(c2ccccc2)CC1 | 1.4
CCOC(=O)c1cccc(NC(=O)c2ccco2)c1 | 13.5
CN(C)CCNC(=O)COc1ccc(C23CC4CC(CC(C4)C2)C3)cc1 | -7.9
Cc1ccc(S(=O)(=O)C(CC(=O)c2ccccc2)c2ccco2)cc1 (stereo unspecified) | -2.2

SMILES | displacement [%]
CN1CCN(/N=C/c2ccc(-c3ccc([N+](=O)[O-])cc3Cl)o2)CC1 | -26.9
Cc1cccc(/C(N)=N/OC(=O)c2cccc(Br)c2)c1 | 8.8
CC(C)c1ccc(NC(=O)C(=O)NCc2cccs2)cc1 | 0.5
CC(=O)n1nc(-c2ccccc2)c(-c2nc3ccccc3[nH]2)c1C | 8.1
CC(CCc1ccccc1)Nc1cc(N2CCN(C(=O)c3ccccc3F)CC2)ccc1[N+](=O)[O-] (stereo unspecified) | 10.9
COc1ccc(NC(=S)NCc2cccnc2)cc1 | -2.2
CCOC(=O)COc1ccc(/C=C2\C(=O)NC(=O)N(c3ccc(C(C)(C)C)cc3)C2=O)cc1OC | -20.5
C[n+]1ccc(/C=C/c2ccc3c(c2)OCO3)cc1 | 13.5
CCOC(=O)C1=C(C)N=c2s/c(=C\c3ccco3)c(=O)n2C1/C=C/c1ccccc1 (stereo unspecified) | -32.7
COP(=O)(OC)C(Nc1cc(Cl)cc(Cl)c1)c1cccc(O)c1 (stereo unspecified) | -14.6
NC(=O)c1c(NC(=O)c2ccco2)sc2c1CCC2 | 4.5
CCC(=O)N(CCc1ccccc1)C1CC(=O)N(c2ccc(F)cc2)C1=O (stereo unspecified) | -5.8
NS(=O)(=O)c1ccc(CNC2CC(=O)N(c3cccc(Br)c3)C2=O)cc1 (stereo unspecified) | -5
COc1cc(/C=N/NC(=O)c2cccc([N+](=O)[O-])c2)ccc1OCc1ccccc1 | 7.8
O=C(NCCOc1ccc(Cl)cc1Cl)c1cc2ccccc2o1 | -7.6
O=S(=O)(Nc1ccc2oc(-c3ccc(I)cc3)nc2c1)c1ccccc1 | 4.2
COc1ccc(NC(=O)C2CC2(c2ccc(C)cc2)c2ccc(C)cc2)cc1 (stereo unspecified) | 1
CCOc1cc(/C=N/O)ccc1OCc1ccc(Cl)cc1 | -6
